From the supplement of paper PMC4967469
Lines with a small IC50 respond at low doses; fits outside the tested doses are given as limits. For AUC the same curve is integrated over the 256-fold range of doses and scaled to a fraction; it is 1 without any effect and falls as sensitivity rises. For some assays here: Where the top dose is marked as inferred, it is not printed in the source and was worked back from the curve model. For some assays here: An entry number marks a drug with two screens in the source, which often give different values.

Key:
Assay in all cases: Viability of human cancer cell lines after 72 h of drug (GDSC screen)
[1] = compound: CN(NC(=O)CC(=O)NN(C)C(=S)c1ccccc1)C(=S)c1ccccc1 [Elesclomol]; conditions: top dose 0.2 µM; top dose inferred
Protocol: (§1)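 Human cancer cell lines in 384-well plates, medium with 10% serum, drug for 72 h over a 256-fold dose range (nine 2-fold or five 4-fold steps up to the top dose). Adherent lines were fixed and stained with the nucleic acid dye Syto60, suspension lines read with resazurin; signal relative to control wells, capped at 0 and 100%. One two-parameter sigmoid per drug and line, fitted in a mixed model over all curves with the slope shared within a line.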

[2] = compound: CC/C(=C(\c1ccccc1)c1ccc(OCCN(C)C)cc1)c1ccccc1 [Tamoxifen]; conditions: top dose 5 µM
Protocol: as §1

[3] = compound: Cc1c(N)nc([C@H](CC(N)=O)NC[C@H](N)C(N)=O)nc1C(=O)N[C@H](C(=O)N[C@H](C)[C@@H](O)[C@H](C)C(=O)N[C@H](C(=O)NCCc1nc(-c2nc(C(=O)NCCC[S+](C)C)cs2)cs1)[C@@H](C)O)[C@@H](OC1OC(CO)C(O)C(O)C1OC1OC(CO)C(O)C(OC(N)=O)C1O)c1cnc[nH]1 [Bleomycin]
Protocol: as §1

[4] = compound: CCCC(=O)OCc1ccc(OC(=O)/C=C(C)/C=C/C=C(C)/C=C/C2=C(C)CCCC2(C)C)cc1 [VNLG/124]; conditions: top dose 5.12 µM; top dose inferred
Protocol: as §1

[5] = compound: O=C(Nc1cccc(Nc2ncc(Br)c(NCCc3cnc[nH]3)n2)c1)N1CCCC1 [BX-912]; conditions: top dose 10.24 µM; top dose inferred
Protocol: as §1

[6] = compound: Cc1ccc(NC(=O)c2ccc(CN3CCN(C)CC3)cc2)cc1Nc1nc(-c2cccnc2)cs1 [Masitinib]; conditions: top dose 20 µM
Protocol: as §1

[7] = compound: O=C(Nc1ccc(OC(F)(F)F)cc1)c1sccc1NCc1ccnc2ccccc12 [OSI-930]; conditions: top dose 10.24 µM
Protocol: as §1

[8] = compound: O=S(=O)(O)c1ccc2cc(N=Nc3cc(S(=O)(=O)O)c4cccnc4c3O)ccc2c1 [NSC-87877]; conditions: top dose 16 µM; top dose inferred
Protocol: as §1

[9] = compound: O=C(/C=C/c1ccc(CN(CCO)CCc2c[nH]c3ccccc23)cc1)NO [LAQ824]; conditions: top dose 1.024 µM; top dose inferred
Protocol: as §1

[10] = top dose 50 µM, screen: GDSC drug entry 1378, top dose inferred
[11] = top dose 64 µM, screen: GDSC drug entry 190

Cell Line	AUC [1]	IC50 [1]	AUC [2]	IC50 [2]	AUC [3, 10]	IC50 [3, 10]	AUC [4]	IC50 [4]	AUC [5]	IC50 [5]	AUC [6]	IC50 [6]	AUC [7]	IC50 [7]	AUC [8]	IC50 [8]	AUC [9]	IC50 [9]	AUC [3, 11]	IC50 [3, 11]
NCI-H1341 (small cell lung carcinoma, suspension)	0.638	28.2 nM	0.97	> 5 µM	0.936	> 50 µM														
SUP-B8 (B-cell leukaemia, suspension)	0.747	63.5 nM	0.98	> 5 µM	0.807	25.5 µM														
JEKO-1 (B-cell lymphoma, suspension)	0.576	20 nM	0.962	> 5 µM	0.858	38.2 µM														
CRO-AP2 (B-cell lymphoma, suspension)	0.463	10.1 nM	0.986	> 5 µM	0.494	3.01 µM														
NCI-H835 (lung carcinoid, suspension)	0.842	130 nM	0.983	> 5 µM	0.982	> 50 µM														
MOLT-16 (T-cell lymphoblastic leukaemia, suspension)	0.252	2.92 nM	0.905	4.32 µM	0.219	0.592 µM														
KMS-11 (myeloma, suspension)	0.934	> 200 nM	0.97	> 5 µM	0.951	> 50 µM	0.975	> 5.12 µM	0.929	> 10.2 µM	0.91	> 20 µM	0.982	> 10.2 µM						
BALL-1 (B-cell leukaemia, suspension)	0.937	179 nM	0.995	> 5 µM	0.983	> 50 µM														
COR-L321 (lung, suspension)	0.988	> 200 nM	0.972	> 5 µM	0.945	> 50 µM	0.968	> 5.12 µM	0.541	0.829 µM	0.901	> 20 µM	0.972	> 10.2 µM						
U-266 (myeloma, semi-adherent)	0.563	19.7 nM	0.93	> 5 µM	0.896	> 50 µM														
RCH-ACV (B-cell leukaemia, suspension)	0.842	105 nM	0.99	> 5 µM	0.551	4.19 µM														
RH-18 (rhabdomyosarcoma, adherent)	0.777	92.7 nM	0.959	> 5 µM	0.807	30.1 µM			0.815	6.68 µM										
SNU-61 (large intestine, adherent)	0.949	> 200 nM	0.981	> 5 µM	0.975	> 50 µM	0.97	> 5.12 µM	0.953	> 10.2 µM	0.924	> 20 µM	0.985	> 10.2 µM						
OV-7 (ovary, adherent)	0.7	61.6 nM	0.946	> 5 µM	0.554	4.72 µM	0.976	> 5.12 µM	0.917	> 10.2 µM	0.872	> 20 µM	0.954	> 10.2 µM						
CML-T1 (chronic myeloid leukaemia, suspension)	0.641	28.5 nM	0.98	> 5 µM	0.532	3.76 µM														
CL-40 (large intestine, adherent)	0.975	> 200 nM	0.958	> 5 µM	0.602	7.18 µM														
MHH-CALL-2 (B-cell leukaemia, suspension)	0.97	> 200 nM	0.985	> 5 µM	0.756	13.3 µM														
MEL-HO (melanoma, adherent)	0.888	> 200 nM	0.95	> 5 µM	0.758	17.5 µM														
IGROV-1 (ovary, adherent)	0.408	6.22 nM	0.959	> 5 µM																
KNS-62 (lung squamous cell carcinoma, adherent)	0.457	9.03 nM	0.904	> 5 µM	0.643	9.31 µM														
TC-YIK (cervix, suspension)	0.808	87.5 nM	0.974	> 5 µM	0.83	25.8 µM														
BFTC-909 (kidney, adherent)			0.951	> 5 µM	0.301	0.876 µM	0.984	> 5.12 µM	0.933	> 10.2 µM	0.978	> 20 µM	0.975	> 10.2 µM	0.988	> 16 µM	0.43	41.3 nM	0.131	0.282 µM
SK-MEL-31 (melanoma, adherent)	0.63	31.7 nM	0.975	> 5 µM	0.927	> 50 µM														
BEN (non-small cell lung carcinoma, adherent)			0.97	> 5 µM	0.897	> 50 µM	0.978	> 5.12 µM	0.954	> 10.2 µM	0.936	> 20 µM	0.956	> 10.2 µM	0.943	> 16 µM	0.497	62.7 nM	0.813	41.1 µM
MOLM-16 (acute myeloid leukaemia, suspension)	0.38	6.11 nM	0.968	> 5 µM	0.843	29.4 µM														
TGBC24TKB (biliary tract, adherent)			0.989	> 5 µM	0.889	> 50 µM	0.987	> 5.12 µM	0.973	> 10.2 µM	0.93	> 20 µM	0.977	> 10.2 µM	0.974	> 16 µM	0.378	30.3 nM	0.87	53.3 µM
